# Results from the supplement of paper PMC8728848.
# The list shows a part of the results.
# B1: AT1G15820(2) (Arabidopsis thaliana), Q9LMQ2 (protein)
# chain: MAMAVSGAVLSGLGSSFLTGGKRGATALASGVGTGAQRVGRKTLIVAAAAAQPKKSWIPAVKGGGNFLDPEWLDGSLPGDFGFDPLGLGKDPAFLKWYREAELIHGRWAMAAVLGIFVGQAWSGVAWFEAGAQPDAIAPFSFGSLLGTQLLLMGWVESKRWVDFFNPDSQSVEWATPWSKTAENFANYTGDQGYPGGRFFDPLGLAGKNRDGVYEPDFEKLERLKLAEIKHSRLAMVAMLIFYFEAGQGKTPLGALGL
# Key:
# Assay in all cases: glycan array binding signal (z-score within array); higher = stronger binding
# Settings in all cases: glycan notation: IUPAC condensed, linker removed
# [1] = molecular target: GlcNAc(a1-3)Gal(b1-4)GlcNAc
# Summary of the method: (§1)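 The binding signal is a Z-score computed within each array. Data were drawn from 3228 arrays in the Consortium for Functional Glycomics database, restricted to those with a known protein sequence. Scores were averaged over arrays of the same protein sequence at different concentrations or buffers, and over linkers, and negative values can be taken as non-binding.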
# [2] = molecular target: GlcNAc(a1-4)Gal(b1-3)GlcNAc
# Summary of the method: as §1
# [3] = molecular target: GlcNAc(a1-4)Gal(b1-4)GalNAc
# Summary of the method: as §1
# [4] = molecular target: GlcNAc(a1-4)Gal(b1-4)GlcNAc
# Summary of the method: as §1
# [5] = molecular target: GlcNAc(a1-4)Gal(b1-4)GlcNAc(b1-3)Gal(b1-4)Glc
# Summary of the method: as §1
# [6] = molecular target: GlcNAc(a1-4)Gal(b1-4)GlcNAc(b1-3)Gal(b1-4)GlcNAc
# Summary of the method: as §1
# [7] = molecular target: GlcNAc(a1-4)Gal(b1-4)GlcNAc(b1-3)Gal(b1-4)GlcNAc(b1-3)Gal(b1-4)GlcNAc
# Summary of the method: as §1
# [8] = molecular target: GlcNAc(a1-4)Gal(b1-4)GlcNAc(b1-3)Gal(b1-4)[Fuc(a1-3)]GlcNAc(b1-3)Gal(b1-4)[Fuc(a1-3)]GlcNAc
# Summary of the method: as §1
# [9] = molecular target: GlcNAc(a1-6)Gal(b1-4)GlcNAc
# Summary of the method: as §1
# [10] = molecular target: GlcNAc(b1-2)Gal(b1-3)GalNAc
# Summary of the method: as §1
# [11] = molecular target: GlcNAc(b1-2)Man(a1-3)[GlcNAc(b1-2)Man(a1-6)]Man(b1-4)GlcNAc(b1-4)GlcNAc
# Summary of the method: as §1
# [12] = molecular target: GlcNAc(b1-2)Man(a1-3)[GlcNAc(b1-2)Man(a1-6)]Man(b1-4)GlcNAc(b1-4)[Fuc(a1-6)]GlcNAc
# Summary of the method: as §1
# [13] = molecular target: GlcNAc(b1-2)Man(a1-3)[GlcNAc(b1-4)][GlcNAc(b1-2)Man(a1-6)]Man(b1-4)GlcNAc(b1-4)GlcNAc
# Summary of the method: as §1
# [14] = molecular target: GlcNAc(b1-2)Man(a1-3)[GlcNAc(b1-4)][GlcNAc(b1-2)Man(a1-6)]Man(b1-4)GlcNAc(b1-4)[Fuc(a1-6)]GlcNAc
# Summary of the method: as §1
# [15] = molecular target: GlcNAc(b1-2)[GlcNAc(b1-4)]Man(a1-3)[GlcNAc(b1-2)Man(a1-6)]Man(b1-4)GlcNAc(b1-4)GlcNAc
# Summary of the method: as §1
# [16] = molecular target: GlcNAc(b1-2)[GlcNAc(b1-4)]Man(a1-3)[GlcNAc(b1-4)][GlcNAc(b1-2)Man(a1-6)]Man(b1-4)GlcNAc(b1-4)GlcNAc
# Summary of the method: as §1
# [17] = molecular target: GlcNAc(b1-2)[GlcNAc(b1-4)]Man(a1-3)[GlcNAc(b1-4)][GlcNAc(b1-2)[GlcNAc(b1-6)]Man(a1-6)]Man(b1-4)GlcNAc(b1-4)GlcNAc
# Summary of the method: as §1
# [18] = molecular target: GlcNAc(b1-2)[GlcNAc(b1-4)]Man(a1-3)[GlcNAc(b1-4)][GlcNAc(b1-2)[GlcNAc(b1-6)]Man(a1-6)]Man(b1-4)GlcNAc(b1-4)[Fuc(a1-6)]GlcNAc
# Summary of the method: as §1
# [19] = molecular target: GlcNAc(b1-2)[GlcNAc(b1-6)]Man(a1-6)[GlcNAc(b1-2)Man(a1-3)]Man(b1-4)GlcNAc(b1-4)GlcNAc
# Summary of the method: as §1
# [20] = molecular target: GlcNAc(b1-2)[GlcNAc(b1-6)]Man(a1-6)[GlcNAc(b1-2)Man(a1-3)]Man(b1-4)GlcNAc(b1-4)[Fuc(a1-6)]GlcNAc
# Summary of the method: as §1
# [21] = molecular target: GlcNAc(b1-2)[GlcNAc(b1-6)]Man(a1-6)[GlcNAc(b1-4)][GlcNAc(b1-2)Man(a1-3)]Man(b1-4)GlcNAc(b1-4)GlcNAc
# Summary of the method: as §1
# GlcNAc(b1-3)Fuc = molecular target: GlcNAc(b1-3)Fuc
# Summary of the method: as §1
# GlcNAc(b1-3)Gal = molecular target: GlcNAc(b1-3)Gal
# Summary of the method: as §1
# [22] = molecular target: GlcNAc(b1-3)Gal(b1-3)GalNAc
# Summary of the method: as §1
# GlcNAc(b1-3)Gal(b1-4)Glc = molecular target: GlcNAc(b1-3)Gal(b1-4)Glc
# Summary of the method: as §1
# [23] = molecular target: GlcNAc(b1-3)Gal(b1-4)GlcNAc
# Summary of the method: as §1
# [24] = molecular target: GlcNAc(b1-3)Gal(b1-4)GlcNAc(b1-2)Man(a1-3)[GlcNAc(b1-3)Gal(b1-4)GlcNAc(b1-2)Man(a1-6)]Man(b1-4)GlcNAc(b1-4)GlcNAc
# Summary of the method: as §1
# [25] = molecular target: GlcNAc(b1-3)Gal(b1-4)GlcNAc(b1-2)Man(a1-3)[GlcNAc(b1-3)Gal(b1-4)GlcNAc(b1-2)Man(a1-6)]Man(b1-4)GlcNAc(b1-4)[Fuc(a1-6)]GlcNAc
# Summary of the method: as §1
# [26] = molecular target: GlcNAc(b1-3)Gal(b1-4)GlcNAc(b1-2)[GlcNAc(b1-3)Gal(b1-4)GlcNAc(b1-6)]Man(a1-6)[GlcNAc(b1-3)Gal(b1-4)GlcNAc(b1-2)Man(a1-3)]Man(b1-4)GlcNAc(b1-4)GlcNAc
# Summary of the method: as §1
# [27] = molecular target: GlcNAc(b1-3)Gal(b1-4)GlcNAc(b1-3)Gal(b1-4)GlcNAc
# Summary of the method: as §1
# [28] = molecular target: GlcNAc(b1-3)Gal(b1-4)GlcNAc(b1-3)Gal(b1-4)GlcNAc(b1-2)Man(a1-3)[GlcNAc(b1-3)Gal(b1-4)GlcNAc(b1-3)Gal(b1-4)GlcNAc(b1-2)Man(a1-6)]Man(b1-4)GlcNAc(b1-4)GlcNAc
# Summary of the method: as §1
# [29] = molecular target: GlcNAc(b1-3)Gal(b1-4)GlcNAc(b1-3)Gal(b1-4)GlcNAc(b1-2)Man(a1-3)[GlcNAc(b1-3)Gal(b1-4)GlcNAc(b1-3)Gal(b1-4)GlcNAc(b1-2)Man(a1-6)]Man(b1-4)GlcNAc(b1-4)[Fuc(a1-6)]GlcNAc
# Summary of the method: as §1
# [30] = molecular target: GlcNAc(b1-3)Gal(b1-4)GlcNAc(b1-3)Gal(b1-4)GlcNAc(b1-2)[GlcNAc(b1-3)Gal(b1-4)GlcNAc(b1-3)Gal(b1-4)GlcNAc(b1-6)]Man(a1-6)[GlcNAc(b1-3)Gal(b1-4)GlcNAc(b1-3)Gal(b1-4)GlcNAc(b1-2)Man(a1-3)]Man(b1-4)GlcNAc(b1-4)[Fuc(a1-6)]GlcNAc
# Summary of the method: as §1
# [31] = molecular target: GlcNAc(b1-3)Gal(b1-4)GlcNAc(b1-3)Gal(b1-4)GlcNAc(b1-3)Gal(b1-4)GlcNAc(b1-2)Man(a1-3)[GlcNAc(b1-3)Gal(b1-4)GlcNAc(b1-3)Gal(b1-4)GlcNAc(b1-3)Gal(b1-4)GlcNAc(b1-2)Man(a1-6)]Man(b1-4)GlcNAc(b1-4)GlcNAc
# Summary of the method: as §1
# [32] = molecular target: GlcNAc(b1-3)Gal(b1-4)GlcNAc(b1-3)Gal(b1-4)GlcNAc(b1-3)Gal(b1-4)GlcNAc(b1-2)Man(a1-3)[GlcNAc(b1-3)Gal(b1-4)GlcNAc(b1-3)Gal(b1-4)GlcNAc(b1-3)Gal(b1-4)GlcNAc(b1-2)Man(a1-6)]Man(b1-4)GlcNAc(b1-4)[Fuc(a1-6)]GlcNAc
# Summary of the method: as §1
# [33] = molecular target: GlcNAc(b1-3)Gal(b1-4)GlcNAc(b1-3)Gal(b1-4)GlcNAc(b1-3)Gal(b1-4)GlcNAc(b1-2)[GlcNAc(b1-3)Gal(b1-4)GlcNAc(b1-3)Gal(b1-4)GlcNAc(b1-3)Gal(b1-4)GlcNAc(b1-6)]Man(a1-6)[GlcNAc(b1-3)Gal(b1-4)GlcNAc(b1-3)Gal(b1-4)GlcNAc(b1-3)Gal(b1-4)GlcNAc(b1-2)Man(a1-3)]Man(b1-4)GlcNAc(b1-4)[Fuc(a1-6)]GlcNAc
# Summary of the method: as §1
# [34] = molecular target: GlcNAc(b1-3)Gal(b1-4)GlcNAc(b1-3)Gal(b1-4)GlcNAc(b1-3)Gal(b1-4)GlcNAc(b1-3)Gal(b1-4)GlcNAc(b1-2)Man(a1-3)[GlcNAc(b1-3)Gal(b1-4)GlcNAc(b1-3)Gal(b1-4)GlcNAc(b1-3)Gal(b1-4)GlcNAc(b1-3)Gal(b1-4)GlcNAc(b1-2)Man(a1-6)]Man(b1-4)GlcNAc(b1-4)GlcNAc
# Summary of the method: as §1
# [35] = molecular target: GlcNAc(b1-3)Gal(b1-4)GlcNAc(b1-3)Gal(b1-4)GlcNAc(b1-3)Gal(b1-4)GlcNAc(b1-3)Gal(b1-4)GlcNAc(b1-2)Man(a1-3)[GlcNAc(b1-3)Gal(b1-4)GlcNAc(b1-3)Gal(b1-4)GlcNAc(b1-3)Gal(b1-4)GlcNAc(b1-3)Gal(b1-4)GlcNAc(b1-2)Man(a1-6)]Man(b1-4)GlcNAc(b1-4)[Fuc(a1-6)]GlcNAc
# Summary of the method: as §1
binder,measurement,setting,value
B1,glycan array binding signal (z-score),[1],-0.384
same,glycan array binding signal (z-score),[2],-0.396
same,glycan array binding signal (z-score),[3],0.069
same,glycan array binding signal (z-score),[4],-0.453
same,glycan array binding signal (z-score),[5],-0.626
same,glycan array binding signal (z-score),[6],-0.414
same,glycan array binding signal (z-score),[7],-0.662
same,glycan array binding signal (z-score),[8],-0.205
same,glycan array binding signal (z-score),[9],-0.013
same,glycan array binding signal (z-score),[10],0.153
same,glycan array binding signal (z-score),[11],-0.26
same,glycan array binding signal (z-score),[12],-0.271
same,glycan array binding signal (z-score),[13],-0.399
same,glycan array binding signal (z-score),[14],0.457
same,glycan array binding signal (z-score),[15],0.598
same,glycan array binding signal (z-score),[16],-0.537
same,glycan array binding signal (z-score),[17],-0.128
same,glycan array binding signal (z-score),[18],0.469
same,glycan array binding signal (z-score),[19],-0.692
same,glycan array binding signal (z-score),[20],0.138
same,glycan array binding signal (z-score),[21],-0.698
same,glycan array binding signal (z-score),GlcNAc(b1-3)Fuc,-0.267
same,glycan array binding signal (z-score),GlcNAc(b1-3)Gal,-0.171
same,glycan array binding signal (z-score),[22],-0.695
same,glycan array binding signal (z-score),GlcNAc(b1-3)Gal(b1-4)Glc,-0.519
same,glycan array binding signal (z-score),[23],-0.493
same,glycan array binding signal (z-score),[24],0.123
same,glycan array binding signal (z-score),[25],-0.094
same,glycan array binding signal (z-score),[26],0.312
same,glycan array binding signal (z-score),[27],-0.426
same,glycan array binding signal (z-score),[28],0.464
same,glycan array binding signal (z-score),[29],0.39
same,glycan array binding signal (z-score),[30],0.67
same,glycan array binding signal (z-score),[31],0.091
same,glycan array binding signal (z-score),[32],-0.45
same,glycan array binding signal (z-score),[33],-0.655
same,glycan array binding signal (z-score),[34],-0.393
same,glycan array binding signal (z-score),[35],0.158
